# Assay results: publication PMC4336329 (PLoS ONE, 2015)
# Out of some 310,000 compounds screened, about 14,000 (4.5%) showed an effect of 50% or more. Effects have a minus sign here. The list shows a part of the results.
# Target: human ether-à-go-go-related gene (hERG) potassium channel (human, UniProt Q12809)
# Assay: primary screen, population patch clamp on CHO cells stably expressing hERG
# 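Note: peak tail current of the secondary pulse compared with the same well before compound.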
# Chain of human ether-à-go-go-related gene (hERG) potassium channel (Q12809 whole entry, looked up): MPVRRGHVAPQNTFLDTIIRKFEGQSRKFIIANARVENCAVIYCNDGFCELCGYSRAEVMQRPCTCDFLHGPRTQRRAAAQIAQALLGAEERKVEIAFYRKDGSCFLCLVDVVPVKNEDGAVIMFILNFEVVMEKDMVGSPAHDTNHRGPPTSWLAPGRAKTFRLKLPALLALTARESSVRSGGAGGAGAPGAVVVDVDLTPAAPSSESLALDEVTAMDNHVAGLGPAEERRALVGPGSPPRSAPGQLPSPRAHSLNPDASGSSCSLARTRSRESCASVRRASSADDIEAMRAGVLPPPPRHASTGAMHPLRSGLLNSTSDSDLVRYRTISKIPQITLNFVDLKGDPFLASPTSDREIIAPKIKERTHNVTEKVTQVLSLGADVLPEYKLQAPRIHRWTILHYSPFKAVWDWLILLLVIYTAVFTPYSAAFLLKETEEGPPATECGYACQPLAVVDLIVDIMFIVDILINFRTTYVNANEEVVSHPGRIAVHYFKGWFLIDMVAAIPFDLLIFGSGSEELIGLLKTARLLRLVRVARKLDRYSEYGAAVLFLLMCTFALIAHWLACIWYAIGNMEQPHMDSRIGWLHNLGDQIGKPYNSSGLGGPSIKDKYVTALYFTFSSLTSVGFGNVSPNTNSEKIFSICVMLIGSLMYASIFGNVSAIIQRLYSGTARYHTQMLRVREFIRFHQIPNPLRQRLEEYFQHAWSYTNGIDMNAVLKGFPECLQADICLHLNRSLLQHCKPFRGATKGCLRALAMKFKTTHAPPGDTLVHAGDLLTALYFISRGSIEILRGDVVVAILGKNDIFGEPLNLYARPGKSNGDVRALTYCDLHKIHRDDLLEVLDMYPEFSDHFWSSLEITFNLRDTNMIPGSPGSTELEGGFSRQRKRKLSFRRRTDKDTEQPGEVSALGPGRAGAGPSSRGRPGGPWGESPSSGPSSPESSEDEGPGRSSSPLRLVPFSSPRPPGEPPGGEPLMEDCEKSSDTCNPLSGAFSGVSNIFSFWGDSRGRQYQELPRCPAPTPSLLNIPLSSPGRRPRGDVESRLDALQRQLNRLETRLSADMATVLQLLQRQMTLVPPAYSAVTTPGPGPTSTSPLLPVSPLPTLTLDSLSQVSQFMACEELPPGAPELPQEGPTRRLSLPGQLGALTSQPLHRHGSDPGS
row,SMILES,"hERG current change (%, negative = inhibition) at 10uM"
1,Cc1ccc([N+](=O)[O-])cc1NC(=S)NC(=O)c1cccnc1,-33.2%
2,CCNC(=O)c1cc(S(=O)(=O)N(C)C)c(Cl)cc1Cl,-1.9%
3,Cc1c(C(=O)OC(C)CCN(C)C)oc2ccccc12.Cl (centres unmarked),-42.8%
4,O=C(CSc1nc2ccccc2o1)NCc1ccc2c(c1)OCO2,-5.06%
5,CC1(C)NC(=O)N(CC(=O)Nc2cc(C(F)(F)F)cc(C(F)(F)F)c2)C1=O,3.44%
6,CC(=O)Oc1c(C)cc(O)c2ccccc12,-13%
7,COc1ccc(N2CCN(c3oc(Cc4ccccc4)nc3C#N)CC2)cc1,-27.8%
8,COc1ccc(Cc2nc3ccc(C(=O)NCCc4ccncc4)cc3o2)cc1OC,7.31%
9,CCOc1ccc(NC(=O)CC2C(=O)N(c3ccc(OCC)cc3)C(=S)N2C2CC2)cc1 (centres unmarked),15.2%
10,COc1ccc(OC)c(CCNC(=O)CN2C(=O)CCSc3ccccc32)c1,-0.0631%
11,Cl.N=c1n(CCCOc2ccccc2Cl)c2ccccc2n1CC(N)=O,3.98%
12,O=c1[nH]c2cc(NCCO)c([N+](=O)[O-])cc2[nH]1,17.8%
13,CCc1cc2ccc(C)cc2nc1SCC(=O)NC1CCCC1,13%
14,CCOC(=O)C1CCN(C(=O)COc2ccc(Br)cc2C)CC1,-19.3%
15,CC(C)c1ccc(NC(=O)CNC(=O)Cn2cnc3ccccc3c2=O)cc1,3.21%
16,O=C(CCCc1ccccc1)NCCCc1ccccc1,-10.9%
17,CCC1(C)Cc2ccccc2-c2nc3n(c(=O)c21)CCCCC3 (centres unmarked),-24%
18,Cc1ccc2cccc(N)c2n1,0.482%
19,Cn1cccc1C(=O)NNC(=O)COc1ccc(Br)cc1,11.8%
20,CCc1cccc(NC(=O)C2CCN(S(=O)(=O)c3c(C)noc3C)CC2)c1,-5.55%
21,CC(=O)Nc1ccc(S(=O)(=O)NC2=NCN(CCOC(=O)c3ccccc3)CN2)cc1,6.73%
22,COc1cc(/C=N/NC(=O)c2ccc([N+](=O)[O-])cc2Cl)cc(Br)c1O,2.77%

row,SMILES,"hERG current change (%, negative = inhibition) at 10uM"
1,CCOc1ccc(C(C)NC(=O)c2cccnc2OCC)cc1OCC (centres unmarked),-2.29%
2,COc1ccc(C(CNC(=O)c2cccc(S(=O)(=O)Nc3ccccc3OC)c2)N2CCOCC2)cc1 (centres unmarked),-46.1%
3,O=C(CCCc1cccs1)Nc1nccs1,38.7%
4,O=C(Cc1ccccc1[N+](=O)[O-])N1CCN(S(=O)(=O)c2ccccc2)CC1,-9.19%
5,COc1cccc(-n2c(SCC(=O)NCCC3=CCCCC3)nc3n[nH]c(C)c3c2=N)c1,-58.9%
6,C/C(=N\N1CCCCC1)c1c(O)[nH]c(=O)[nH]c1=O,-11%
7,C[C@H](NC(=O)N1CCn2c1nc1ccccc12)C(=O)N1CCCCC1,9.31%
8,COc1cccc(C(=O)C2CCCN(C(=O)c3ccccn3)C2)c1 (centres unmarked),3.77%
9,Cn1c(SCc2ccc3c(c2)OCO3)nnc1-c1ccccc1,-8.13%
10,COc1ccccc1NC(=O)C1CCCN(S(=O)(=O)c2ccccc2)C1 (centres unmarked),1.7%
11,Cc1ccc(NC(=O)COC(=O)c2csc3c2CCC(C)C3)cc1S(=O)(=O)N1CCCCC1 (centres unmarked),8.98%
12,CN(CCO)C1=CC(=O)CC(C)(C)C1,13.8%
13,CCCn1c(N)c(N2CCCCC2)c(=O)n(CC(=O)Nc2ccccc2)c1=O,3.95%
14,CC12CCC(C/C1=N/O)C2(C)C (centres unmarked),6.85%
15,COC(=O)c1cnn(-c2cc(Oc3ccccc3)ncn2)c1N,-10.4%
16,CC(C)(C)n1cnc2cc(NCc3ccc(Br)cc3)ccc21,-69.2%
17,O=C(NNc1ccccc1C(F)(F)F)c1cccs1,-1.2%
18,CS(=O)(=O)N(CC(=O)Nc1ccc(F)cc1)C1CCCCC1,12.6%
19,Cc1ccc(S(=O)(=O)NCC(=O)OCN2C(=O)c3ccccc3C2=O)cc1,5.91%
20,Cc1ccc(OCc2nnc(SCC(=O)N3CCc4ccccc43)n2C)cc1,16.4%
21,COc1ccc(CCC(=O)OCC(=O)Nc2ccc(C)c(S(=O)(=O)N(C)C)c2)cc1,-18.8%
22,C=C(C)CNC(=S)Nc1cccc2cnccc12,15.7%
